# Results as given in PubChem BioAssay AID540267 (National Center for Advancing Translational Sciences (NCATS), 2011).
# Screen size: about 340,000 compounds; about 530 (0.16%) were called active. This list was built around the results that the source calls inconclusive (neither active nor inactive); the mix of calls is not that of the screen. Rule as the data show it: active = activity change below about -80%; inconclusive = between about -30% and that limit; inactive = weaker than that.
# Assay: Small Molecules that selectively kill Giardia lamblia: qHTS;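 also: parasites exposed to compound for two days anaerobically before the ATP read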
# Details: Giardia lamblia trophozoite viability; at 7.66 µM; active compounds read low
# Outline: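 Viability, read as ATP luminescence: trophozoites at 100 cells/well, compound added, 48 hrs anaerobic at 37 deg C, then 15-30 min room-temperature development before reading.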
# % is scaled to controls: 0 for no effect and ±100 for the full control effect.
row,SMILES,activity change
1,Cc1ccn2cc(-c3cccc(NC(=O)CCC(=O)O)c3)nc2c1,inconclusive: -57.1% [inhibitor]
2,CC(C)C(NC(=O)c1ccco1)C(=O)OCC(=O)N1CC(=O)Nc2ccccc21 (stereo not drawn),inconclusive: -33.3% [inhibitor]
3,COc1ccc(C(=O)Nc2ccc3[nH]ncc3c2)cc1,inconclusive: -58.8% [inhibitor]
4,CCCCSc1n[nH]c(N)n1,inconclusive: -40.3% [inhibitor]
5,Cc1cc(C(=O)Nc2cccc(-c3ccc(N4CCOCC4)nn3)c2)ccc1[N+](=O)[O-],inconclusive: -41.2% [inhibitor]
6,COc1ccc(NC(=O)CN(C)CC(=O)N(C)C2(C#N)CCC(C)CC2)cc1 (stereo not drawn),inconclusive: -39.4% [inhibitor]
7,CC(=O)CCc1oc2ccc([N+](=O)[O-])cc2c1-c1ccc(C)o1,inconclusive: -33.3% [inhibitor]
8,Cc1ccc(C)c(NC(=S)NC23CN4CN(CN(C4)C2)C3)c1,inactive: 8.74%
9,CC(=O)N1CCn2c3c(c4cc(C)ccc42)CCCC31 (stereo not drawn),inconclusive: -31.8% [inhibitor]
10,CC(=O)C1=C(C)N(Cc2ccccc2)C(=O)N[C@H]1c1ccco1,inconclusive: -32.2% [inhibitor]
11,Cc1ccc(OCC(=O)N2CCC(Cc3ccccc3)CC2)c([N+](=O)[O-])n1,inconclusive: -36.4% [inhibitor]
12,Cc1cc(C)cc(NS(=O)(=O)CCCS(=O)(=O)Nc2cc(C)cc(C)c2)c1,inactive: -3.68%
13,O=C(O)COc1ccc(/C=C/C(=O)c2ccc(C3CCCCC3)cc2)cc1,inconclusive: -38.1% [inhibitor]
14,CCN1CCCC1CNC(=O)c1cc2ccc(OC)cc2[nH]1 (stereo not drawn),inactive: -15.6%
15,COc1ccccc1NS(=O)(=O)c1ccc(C)c(C(=O)NC2CCN(Cc3ccccc3)CC2)c1,inconclusive: -33.7% [inhibitor]
16,COc1ccc(NC(=O)C2=CC(c3ccc(OC)cc3)=NS(=O)(=O)N2C)cc1,inconclusive: -32.4% [inhibitor]
17,N#Cc1c(N2CCN(c3ccc([N+](=O)[O-])cc3)CC2)[n+](=O)c2ccc(Cl)cc2n1[O-],inconclusive: -63% [inhibitor]
18,CCOc1ccc(C2CC(c3cccc(OC)c3)n3nc(N)nc3N2)cc1 (stereo not drawn),inconclusive: -30.7% [inhibitor]
19,CC(C)(C)OC(=O)N1CCC(C(=O)Nc2ccc(C(=O)N3CCCC3)cc2)CC1,inconclusive: -30.4% [inhibitor]
20,Cc1ccc(OCCCN2C(=O)C(=O)c3cc(C)ccc32)cc1,inconclusive: -38.9% [inhibitor]
21,COc1cc(OC)c(/C=N/NC(N)=S)cc1Br,inactive: 6.44%
22,CCOP(=O)(OCC)c1nc(-c2cccc3ccccc23)oc1NCCc1ccc(OC)cc1,inconclusive: -30.6% [inhibitor]
23,Cc1cc(C)c(NC(=O)Nc2ccccc2)c(C)n1,inconclusive: -41.6% [inhibitor]
24,Cc1ccc(NC(=O)c2csc(-c3ccccc3)c2C)cc1,inconclusive: -43.8% [inhibitor]
25,COCCCn1c(-c2cccs2)nc2nc3ccccc3nc21,inconclusive: -32.3% [inhibitor]
26,Cc1ccc(C)c(OCCC(=O)OCC(=O)N(C)c2c(N)n(Cc3ccccc3)c(=O)[nH]c2=O)c1,inconclusive: -32.5% [inhibitor]

row,SMILES,activity change
1,COc1ccccc1NS(=O)(=O)c1cccc(C(=O)N/N=C/c2ccc([N+](=O)[O-])o2)c1,inconclusive: -72.4% [inhibitor]
2,CCN(Cc1ccc2c(c1)OCO2)C(=O)/C=C/c1cccc(Br)c1,inconclusive: -40.6% [inhibitor]
3,O=C1C2CCCCN2C(=O)N1CCN1CCN(c2cccc(Cl)c2)CC1 (stereo not drawn),inactive: -0.437%
4,Cc1ccc(C(=O)Nc2nc(COc3ccccc3)cs2)s1,inactive: -0.861%
5,CN(C)c1nc(=Nc2cccc(Cl)c2)ss1,inconclusive: -71% [inhibitor]
6,CCOC(=O)/C(=C\C=C1/Sc2cc(OCC)c(OCC)cc2N1CC)C(C)=O,inactive: 2.9%
7,Cc1[nH]c2ccc(-c3n[nH]c(=S)n3-c3ccccc3)cc2c1C,inactive: -2.88%
8,CC(OCCN1CCCC1)(c1ccc(F)cc1)c1ccc(F)cc1,inactive: -3.22%
9,Cc1ccc(C(=O)Nc2ccc(C(=O)N/N=C/c3c[nH]c4ccccc34)cc2)cc1,inactive: 0.193%
10,CCCCOc1ccc(C(=O)NCC(=O)NCCCn2nc(C)cc2C)cc1,inconclusive: -46.7% [inhibitor]
11,Cn1ccnc1SCC(=O)NC1CCCCC1,inactive: -20.9%
12,COC(=O)C(Cc1ccccc1)NC(=O)CC(C)CC(=O)Nc1ccc(OC)cc1OC (stereo not drawn),inconclusive: -31.7% [inhibitor]
13,Cc1ccccc1NC(=O)Cn1c(=O)oc2ccccc21,inactive: 10.1%
14,COc1ccc(-n2nc3cc(C)c(NC(=S)NC(=O)c4ccccc4C)cc3n2)cc1,inactive: -7.38%
15,O=C(NN1C(=O)C2CC=C(Cl)CC2C1=O)c1ccncc1 (stereo not drawn),inconclusive: -38.8% [inhibitor]
16,Cc1ccc(NC(=O)c2cnc(N3CCN(c4ccccn4)CC3)c3ccccc23)c(Br)c1,inactive: -8.79%
17,COc1ccc(C(=O)NCCN2CCCC2)cc1[N+](=O)[O-],inconclusive: -33.6% [inhibitor]
18,O=C(OCC(=O)N1CCN(Cc2ccccc2)CC1)c1cc(Cl)ccc1[N+](=O)[O-],inconclusive: -30.6% [inhibitor]
19,COc1cc(OC)cc(C(=O)c2c(C)c(C#N)c3ccccn23)c1,inactive: -13.3%
20,O=C(N/N=C\c1ccc([N+](=O)[O-])s1)c1cncc(Br)c1,inconclusive: -80% [inhibitor]
21,CCn1c(CN2C(=O)CSc3ccccc32)n[nH]c1=S,inconclusive: -32.5% [inhibitor]
22,COc1ccccc1C1C([N+](=O)[O-])=CC([N+](=O)[O-])=CN1C (stereo not drawn),active: -82.7%
23,CC(Oc1cccc(Br)c1)C(=O)NNC(=O)CCNC(=O)c1ccccc1Cl (stereo not drawn),inconclusive: -35.7% [inhibitor]
24,CC(=O)Nc1ccc(S(=O)(=O)NCCC(=O)N2CCN(c3ccccc3Cl)CC2)cc1,inconclusive: -47.7% [inhibitor]
25,CC1(OC(=O)c2cccs2)C(=O)C=C2C=C(C3CC3)OC=C2C1=O (stereo not drawn),inconclusive: -36.3% [inhibitor]
26,COc1cc(C(=O)Nc2cccc3cccnc23)cc(OC)c1OC,inactive: -16.7%

row,SMILES,activity change
1,CN(C)S(=O)(=O)c1cccc(C(=O)NCCNC(=O)c2cccc(S(=O)(=O)N(C)C)c2)c1,inconclusive: -45.5% [inhibitor]
2,COc1ccccc1CN1CC(C(=O)N(Cc2cnn(C)c2)C(C)C)CCC1=O (stereo not drawn),inconclusive: -42.1% [inhibitor]
3,Cc1ccc(NC(=O)c2nc(S(=O)(=O)Cc3ccccc3C)ncc2Cl)cc1C,inconclusive: -32.6% [inhibitor]
4,Cc1csc(CNc2ncnc3ccc(-c4cccnc4)cc23)c1,inactive: 4.67%
5,COc1ccc(-c2cc3nc(C)cc(N)n3n2)cc1,inconclusive: -73.4% [inhibitor]
6,CCOc1ccccc1N1CCN(C(=O)c2cc(-c3cc(OC)ccc3OC)nc3ccccc23)CC1,inconclusive: -30.1% [inhibitor]
7,CC12CN3CC(C)(CN(C1)C3c1ccc3c(c1)OCO3)C2O (stereo not drawn),inconclusive: -32% [inhibitor]
8,O=[N+]([O-])c1ncc(Br)cc1Nc1ccccc1,active: -90.1%
9,O=C(NCCNCCO)C1(C(F)(F)F)C/C(=C\CCO)CCCO1 (stereo not drawn),inconclusive: -36.7% [inhibitor]
10,O=C(N/N=C1\CCc2ccccc21)c1ccccc1O,inconclusive: -40.8% [inhibitor]
11,Cc1csc(Nc2ccccc2)[n+]1C,inconclusive: -34.5% [inhibitor]
12,CCOC(=O)c1ccc(NC(=O)c2c(Cl)cc(C)nc2C)cc1,inactive: 2.31%
13,CCOc1ccc(CSC(=N)N)cc1,inactive: -0.366%
14,CCOC(=O)C(NC(=O)c1cccc(Cl)c1)(OCc1ccc(F)cc1)C(F)(F)F (stereo not drawn),inactive: -0.743%
15,N#C/C(=C\c1cccc(Oc2ccc(C(F)(F)F)cc2[N+](=O)[O-])c1)c1nc2ccccc2[nH]1,inactive: 0.418%
16,CC1(C)C2CC=C(/C=N/NC(=S)NCCc3ccccc3)C1C2 (stereo not drawn),inconclusive: -32% [inhibitor]
17,Cc1ccc2cc3c(NS(=O)(=O)c4cccc5nonc45)nn(CC(C)C)c3nc2c1,inconclusive: -32.2% [inhibitor]
18,Cn1c(=N)n(CC(=O)c2ccccc2)c2ccccc21,inconclusive: -37.8% [inhibitor]
19,CCNS(=O)(=O)c1ccc(CCC(=O)NCc2ccccc2)cc1,inconclusive: -30.2% [inhibitor]
20,O=C1Cc2cc(S(=O)(=O)NCc3ccccc3Cl)cc3c2N1CCC3,inconclusive: -31.2% [inhibitor]
21,Cc1ccc(C(=O)N/C(=C\c2cccs2)C(=O)NCCCn2ccnc2)cc1,inactive: 14.1%
22,O=C(NCc1ccncc1)C(=O)NCc1ccco1,inconclusive: -31.7% [inhibitor]
23,Cc1nn(-c2ccccc2)c(C)c1NC(=O)COc1ccc(Br)cc1Cl,inactive: -12.2%
24,Cc1cc(NC(=O)CS(=O)(=O)c2cn(Cc3ccc(F)cc3)c3ccccc23)no1,inactive: 21.1%
25,COCCCNC(=S)Nc1ccc(C)cc1,inactive: -12.2%
26,Cc1ccc([C@@H]2CC=C(C(=O)O)[C@H](c3ccccc3)N2S(=O)(=O)c2ccc(C)cc2)cc1,inconclusive: -53.2% [inhibitor]
